Laboratory results reported in the supplement of paper PMC3334620.
In all, about 33,000 sequences were measured (“E-score (-0.5 to 0.5)”: median about -0.013, highest 2% from about 0.3 on). This is one part of the list.

Molecular target: T1, Msn1 (UniProt P22148)
T1 sequence: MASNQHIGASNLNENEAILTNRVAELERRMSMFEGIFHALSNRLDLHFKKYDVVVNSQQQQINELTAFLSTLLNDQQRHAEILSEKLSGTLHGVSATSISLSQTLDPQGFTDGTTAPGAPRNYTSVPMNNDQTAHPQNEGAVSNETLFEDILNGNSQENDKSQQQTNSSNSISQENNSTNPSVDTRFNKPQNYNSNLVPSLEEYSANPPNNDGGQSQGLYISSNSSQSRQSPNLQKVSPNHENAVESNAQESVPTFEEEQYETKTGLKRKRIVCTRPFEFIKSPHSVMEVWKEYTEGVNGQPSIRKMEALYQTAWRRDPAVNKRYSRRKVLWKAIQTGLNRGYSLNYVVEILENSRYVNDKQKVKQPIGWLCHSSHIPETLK
Assay: PBM E-score (8-mer binding enrichment) (E-score (-0.5 to 0.5)); higher = stronger / more preferred TF binding; most listed sequences are background and not binding sites
Conditions: protein concentration: 200 nM; construct: GST-full length
Outline: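 Detection of bound protein used fluorescent anti-GST, with scans normalised by masliner. The proteins were GST-tagged yeast transcription factors applied at about 100-200 nM to universal all-10-mer Agilent arrays made double-stranded by primer extension. Each ungapped eight-base word, pooled with its reverse complement, was scored with an E-score from the Universal PBM Analysis Suite.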

Sequence	PBM E-score
GAAGCTTA	0.00159
TCTTTTCA	0.101
GAACGGTC	-0.0602
ACGCTCCC	-0.164
AAGCCATA	-0.00452
GGCTTTAC	0.022
ACCGGAGT	-0.0967
GACCACTA	-0.131
CTCTATGA	-0.178
AGGAGAAA	-0.189
AATAGACA	0.259
AAATTGCG	0.012
GTGTACAA	0.32
CTCTTAGC	-0.0929
ATGAACTC	-0.035
ATCAGTCA	0.0402
GAATAACA	0.0873
ATCTAGAT	0.0576
ACAAGTCC	0.363
AGGTTTGG	-0.106
CAGTGCCA	-0.26
CAGTGGCC	-0.238
CCCCTTGC	-0.207
CTCCTGTA	0.058
CAAATAGC	0.106

Sequence	PBM E-score
ACGACCGC	-0.219
CTTATAAA	0.278
CGCAAACA	0.143
TCAGAAGA	-0.0475
ATGGCTGC	-0.108
GTCTAGTA	0.243
ACGGAACG	0.149
ACTAGTTA	0.196
CCTAATAC	-0.0295
TATCCGGA	0.277
CCACAACG	-0.0742
CAATCGTG	-0.0361
CCGGGGCG	-0.24
CATCCACG	0.00062
ATTCTTTA	0.201
GCCATGCA	-0.00541
GCCGTAAA	0.00542
AGTCATAA	0.0855
CTGGGAAA	-0.203
CAGAGCTG	-0.166
AATCAGAC	0.0545
AGATGACA	0.157
TCATCTAA	0.0096
GGAGAAAA	-0.038
GCGCGCTA	0.194

Sequence	PBM E-score
GTATCTCA	0.165
AGATTGCG	0.0722
CACCGTCA	-0.0297
GGTAGTAA	-0.159
AAGGTCGA	0.0716
GGTCGAAC	-0.0911
AAGATGCA	0.0346
CCGAGTCC	0.137
TAATTGAA	-0.031
AATCCCAT	-0.197
CGAGATCG	-0.108
GATCCCGC	-0.139
CCAGCGCC	-0.229
AGACGAAA	0.291
ATAAATGA	0.217
GGATACCC	-0.0849
CGCGTCCA	0.211
CGCCTTTC	-0.189
AACTTTAC	0.0544
ATGCACCA	-0.162
AAGCGAAT	0.12
GCTTCTCA	-0.273
CCGGTAGG	-0.158
AGTCTTTC	-0.115
AACTACTC	-0.0512

Sequence	PBM E-score
CCTCGGGA	0.055
CACTCGGC	0.148
CGACCCGC	-0.166
CCATATCA	0.0259
AGCTTCAT	0.128
ACGCCTGG	-0.139
GTTTTTTA	0.175
GTACCACA	0.166
CGGGCAAC	-0.0877
CATAATAG	0.166
AAGTAAAG	-0.0747
TAGGTAGA	0.0723
CCTTCAAA	0.0463
ATTCCCAG	0.132
TTGTCAAA	0.18
GTACTCAC	0.173
AACCTTCG	0.0972
AACCGTCA	-0.195
CTGGCGAC	-0.223
ATATGCTA	-0.0322
GCAAATAA	0.0601
CGTCTCTA	-0.135
CCTCCCAA	-0.179
GGAGGAGA	-0.179
CAAATTGC	0.0736

Sequence	PBM E-score
ACGCTGCT	-0.0404
GAACTAGA	0.0544
CTTGAATA	0.131
AGCAATGG	-0.216
GCTTCTAC	-0.0502
GACCAGTC	-0.252
ATGGTGAG	-0.222
AGGACAGA	0.437
ACTAGCAC	-0.168
CCGGTGAC	-0.0965
CTCCGATA	0.0677
ATTTTATA	0.22
AGTTGTAA	-0.062
ATCTGCCC	-0.163
AAACTTAG	-0.0183
TCGATACA	0.155
CATAGATA	0.126
TTCGCGAA	0.1
CGGAAAGC	0.0609
AAGGTTCC	-0.0412
ATCGCACC	-0.172
CCAAGTGA	-0.0352
GGCGTACC	-0.192
AATGCGGG	0.145
ATGGAAGC	-0.115

Sequence	PBM E-score
CAGACATC	0.246
ATTAGGAG	0.0942
CCGATAAC	0.172
ACAGTGAT	0.129
GTTTTGAA	0.158
GGCGGTAA	0.115
CCTGATAA	0.0313
CCCCTAAA	-0.0798
GGATCGCA	-0.0435
CATGGAGA	-0.00044
CCAGGAGA	-0.164
TAACGGTA	0.0466
TACTTTGA	-0.0407
GGGTCCGA	-0.115
CATCGCTC	-0.202
CCTAACAA	0.224
CAGGCTGC	-0.131
GTATTAAA	0.261
AGTCGTCC	-0.0628
AAGCATAC	0.0589
ACTGCCAC	-0.0354
GTTTTCAA	0.281
GGAGCATA	-0.021
ACTTGGTC	0.0793
ACTATGGG	-0.169

Sequence	PBM E-score
CCGCCACG	0.0559
CACCGTTC	-0.0461
ATCATGGC	-0.129
ACATGTCG	0.311
GGCGCTGA	-0.166
AATCGTTA	-0.0527
TCCACGGA	0.299
ATATGCCC	0.0172
AGGAACTA	-0.0727
ATAGGAAG	-0.192
ATGCCAGG	-0.0762
CGTGATCA	0.173
ACTGAGGG	-0.159
CTATCATC	0.0314
CGGTCCAA	-0.0855
ATAAAGCA	0.093
ATATCAAG	0.0534
AGATGTAA	0.102
CCCCTGAG	-0.297
CATACAGG	-0.0332
ATAGTTTA	-0.103
CTAGACGA	-0.156
